# Source: the supplement of paper PMC8728848
# Some of the results follow.
# B1: EPL1 (Trichoderma atroviride), A0PCX2 (protein)
# chain: MQLSNLFKLALFTAAVSADTVSYDTGYDDASRSLTVVSCSDGTNGLITRYHWQTQGQIPRFPYIGGAQAVAGWNSPNCGTCWKLTYSGKTIYVLAIDHTAAGFNIGLDAMNALTNGNAVALGRVSATASQVAVSNCGL
# What was measured:
# Test in all cases: glycan array binding signal (z-score within array); higher = stronger binding
# Conditions in all cases: glycan notation: IUPAC condensed, linker removed
# [1] = target: Neu5Ac(a2-3)Gal(b1-4)GlcNAc(b1-2)[Neu5Ac(a2-3)Gal(b1-4)GlcNAc(b1-4)]Man(a1-3)[GlcNAc(b1-4)][Neu5Ac(a2-3)Gal(b1-4)GlcNAc(b1-2)[Neu5Ac(a2-3)Gal(b1-4)GlcNAc(b1-6)]Man(a1-6)]Man(b1-4)GlcNAc(b1-4)GlcNAc
# Method in brief: (§1)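 The Consortium for Functional Glycomics database supplied 3228 glycan arrays, of which those lacking an available protein sequence were dropped. The binding signal, a within-array Z-score, was averaged across arrays of the same protein sequence and across linkers. Negative scores can be read as non-binding.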
# [2] = target: Neu5Ac(a2-3)Gal(b1-4)GlcNAc(b1-2)[Neu5Ac(a2-3)Gal(b1-4)GlcNAc(b1-4)]Man(a1-3)[GlcNAc(b1-4)][Neu5Ac(a2-3)Gal(b1-4)GlcNAc(b1-4)Man(a1-6)]Man(b1-4)GlcNAc(b1-4)GlcNAc
# Method in brief: as §1
# [3] = target: Neu5Ac(a2-3)Gal(b1-4)GlcNAc(b1-2)[Neu5Ac(a2-3)Gal(b1-4)GlcNAc(b1-6)]Man(a1-6)[Neu5Ac(a2-3)Gal(b1-4)GlcNAc(b1-2)Man(a1-3)]Man(b1-4)GlcNAc(b1-4)GlcNAc
# Method in brief: as §1
# [4] = target: Neu5Ac(a2-3)Gal(b1-4)GlcNAc(b1-2)[Neu5Ac(a2-3)Gal(b1-4)GlcNAc(b1-6)]Man(a1-6)[Neu5Ac(a2-3)Gal(b1-4)GlcNAc(b1-2)Man(a1-3)][GlcNAc(b1-4)]Man(b1-4)GlcNAc(b1-4)GlcNAc
# Method in brief: as §1
# [5] = target: Neu5Ac(a2-3)Gal(b1-4)GlcNAc(b1-3)Gal
# Method in brief: as §1
# [6] = target: Neu5Ac(a2-3)Gal(b1-4)GlcNAc(b1-3)Gal(b1-3)GlcNAc
# Method in brief: as §1
# [7] = target: Neu5Ac(a2-3)Gal(b1-4)GlcNAc(b1-3)Gal(b1-4)GlcNAc
# Method in brief: as §1
# [8] = target: Neu5Ac(a2-3)Gal(b1-4)GlcNAc(b1-3)Gal(b1-4)GlcNAc(b1-2)Man(a1-3)[Neu5Ac(a2-3)Gal(b1-4)GlcNAc(b1-3)Gal(b1-4)GlcNAc(b1-2)Man(a1-6)]Man(b1-4)GlcNAc(b1-4)GlcNAc
# Method in brief: as §1
# [9] = target: Neu5Ac(a2-3)Gal(b1-4)GlcNAc(b1-3)Gal(b1-4)GlcNAc(b1-3)Gal(b1-4)GlcNAc
# Method in brief: as §1
# [10] = target: Neu5Ac(a2-3)Gal(b1-4)GlcNAc(b1-3)Gal(b1-4)GlcNAc(b1-3)Gal(b1-4)GlcNAc(b1-2)Man(a1-3)[Neu5Ac(a2-3)Gal(b1-4)GlcNAc(b1-3)Gal(b1-4)GlcNAc(b1-3)Gal(b1-4)GlcNAc(b1-2)Man(a1-6)]GalNAc
# Method in brief: as §1
# [11] = target: Neu5Ac(a2-3)Gal(b1-4)GlcNAc(b1-3)Gal(b1-4)GlcNAc(b1-3)GalNAc
# Method in brief: as §1
# [12] = target: Neu5Ac(a2-3)Gal(b1-4)GlcNAc(b1-3)Gal(b1-4)GlcNAc(b1-3)[Neu5Ac(a2-3)Gal(b1-4)GlcNAc(b1-3)Gal(b1-4)GlcNAc(b1-6)]GalNAc
# Method in brief: as §1
# [13] = target: Neu5Ac(a2-3)Gal(b1-4)GlcNAc(b1-3)Gal(b1-4)GlcNAc(b1-6)[Gal(b1-3)]GalNAc
# Method in brief: as §1
# [14] = target: Neu5Ac(a2-3)Gal(b1-4)GlcNAc(b1-3)Gal(b1-4)[Fuc(a1-3)]GlcNAc
# Method in brief: as §1
# [15] = target: Neu5Ac(a2-3)Gal(b1-4)GlcNAc(b1-3)GalNAc
# Method in brief: as §1
# [16] = target: Neu5Ac(a2-3)Gal(b1-4)GlcNAc(b1-3)[Neu5Ac(a2-3)Gal(b1-4)GlcNAc(b1-6)]GalNAc
# Method in brief: as §1
# [17] = target: Neu5Ac(a2-3)Gal(b1-4)GlcNAc(b1-6)GalNAc
# Method in brief: as §1
# [18] = target: Neu5Ac(a2-3)Gal(b1-4)GlcNAc(b1-6)[Gal(b1-3)]GalNAc
# Method in brief: as §1
# [19] = target: Neu5Ac(a2-3)Gal(b1-4)GlcNAc(b1-6)[Neu5Ac(a2-3)Gal(b1-3)]GalNAc
# Method in brief: as §1
# [20] = target: Neu5Ac(a2-3)Gal(b1-4)GlcNAc6S
# Method in brief: as §1
# [21] = target: Neu5Ac(a2-3)Gal(b1-4)[Fuc(a1-3)]GlcNAc
# Method in brief: as §1
# [22] = target: Neu5Ac(a2-3)Gal(b1-4)[Fuc(a1-3)]GlcNAc(b1-2)Man
# Method in brief: as §1
# [23] = target: Neu5Ac(a2-3)Gal(b1-4)[Fuc(a1-3)]GlcNAc(b1-3)Gal
# Method in brief: as §1
# [24] = target: Neu5Ac(a2-3)Gal(b1-4)[Fuc(a1-3)]GlcNAc(b1-3)Gal(b1-4)GlcNAc
# Method in brief: as §1
# [25] = target: Neu5Ac(a2-3)Gal(b1-4)[Fuc(a1-3)]GlcNAc(b1-3)Gal(b1-4)[Fuc(a1-3)]GlcNAc(b1-3)Gal(b1-4)[Fuc(a1-3)]GlcNAc
# Method in brief: as §1
# [26] = target: Neu5Ac(a2-3)Gal(b1-4)[Fuc(a1-3)]GlcNAc(b1-3)GalNAc
# Method in brief: as §1
# [27] = target: Neu5Ac(a2-3)Gal(b1-4)[Fuc(a1-3)]GlcNAc(b1-6)[Gal(b1-3)]GalNAc
# Method in brief: as §1
# [28] = target: Neu5Ac(a2-3)Gal(b1-4)[Fuc(a1-3)]GlcNAc(b1-6)[Neu5Ac(a2-3)Gal(b1-3)]GalNAc
# Method in brief: as §1
# [29] = target: Neu5Ac(a2-3)Gal(b1-4)[Fuc(a1-3)]GlcNAc6S
# Method in brief: as §1
# [30] = target: Neu5Ac(a2-3)Gal6S(b1-4)GlcNAc
# Method in brief: as §1
# [31] = target: Neu5Ac(a2-3)Gal6S(b1-4)[Fuc(a1-3)]GlcNAc
# Method in brief: as §1
# Neu5Ac(a2-3)GalNAc = target: Neu5Ac(a2-3)GalNAc
# Method in brief: as §1
# [32] = target: Neu5Ac(a2-3)GalNAc(b1-4)GlcNAc
# Method in brief: as §1
# [33] = target: Neu5Ac(a2-3)[GalNAc(b1-4)]Gal(b1-4)Glc
# Method in brief: as §1
# [34] = target: Neu5Ac(a2-3)[GalNAc(b1-4)]Gal(b1-4)GlcNAc
# Method in brief: as §1
# [35] = target: Neu5Ac(a2-3)[GalNAc(b1-4)]Gal(b1-4)GlcNAc(b1-3)GalNAc
# Method in brief: as §1
# [36] = target: Neu5Ac(a2-3)[Neu5Ac(a2-6)]GalNAc
# Method in brief: as §1
# Neu5Ac(a2-6)Gal = target: Neu5Ac(a2-6)Gal
# Method in brief: as §1
# [37] = target: Neu5Ac(a2-6)Gal(b1-3)GlcNAc(b1-3)[Gal(b1-4)GlcNAc(b1-6)]Gal(b1-4)Glc
# Method in brief: as §1
# Neu5Ac(a2-6)Gal(b1-4)Glc = target: Neu5Ac(a2-6)Gal(b1-4)Glc
# Method in brief: as §1
# [38] = target: Neu5Ac(a2-6)Gal(b1-4)GlcNAc
# Method in brief: as §1
# [39] = target: Neu5Ac(a2-6)Gal(b1-4)GlcNAc(b1-2)Man
# Method in brief: as §1
# [40] = target: Neu5Ac(a2-6)Gal(b1-4)GlcNAc(b1-2)Man(a1-3)Man(b1-4)GlcNAc(b1-4)GlcNAc
# Method in brief: as §1
# [41] = target: Neu5Ac(a2-6)Gal(b1-4)GlcNAc(b1-2)Man(a1-3)[Gal(b1-4)GlcNAc(b1-2)Man(a1-6)]Man(b1-4)GlcNAc(b1-4)GlcNAc
# Method in brief: as §1
# [42] = target: Neu5Ac(a2-6)Gal(b1-4)GlcNAc(b1-2)Man(a1-3)[GlcNAc(b1-2)Man(a1-6)]Man(b1-4)GlcNAc(b1-4)GlcNAc
# Method in brief: as §1
binder,measurement,setting,value
B1,glycan array binding signal (z-score),[1],0.049
same,glycan array binding signal (z-score),[2],0.648
same,glycan array binding signal (z-score),[3],0.484
same,glycan array binding signal (z-score),[4],-0.266
same,glycan array binding signal (z-score),[5],-0.362
same,glycan array binding signal (z-score),[6],-0.151
same,glycan array binding signal (z-score),[7],-0.4
same,glycan array binding signal (z-score),[8],0.387
same,glycan array binding signal (z-score),[9],0.148
same,glycan array binding signal (z-score),[10],0.016
same,glycan array binding signal (z-score),[11],-0.438
same,glycan array binding signal (z-score),[12],0.045
same,glycan array binding signal (z-score),[13],-0.177
same,glycan array binding signal (z-score),[14],-0.32
same,glycan array binding signal (z-score),[15],-0.241
same,glycan array binding signal (z-score),[16],-0.13
same,glycan array binding signal (z-score),[17],-0.334
same,glycan array binding signal (z-score),[18],-0.154
same,glycan array binding signal (z-score),[19],-0.379
same,glycan array binding signal (z-score),[20],-0.025
same,glycan array binding signal (z-score),[21],-0.138
same,glycan array binding signal (z-score),[22],-0.347
same,glycan array binding signal (z-score),[23],0.114
same,glycan array binding signal (z-score),[24],0.07
same,glycan array binding signal (z-score),[25],0.732
same,glycan array binding signal (z-score),[26],1.06
same,glycan array binding signal (z-score),[27],0.433
same,glycan array binding signal (z-score),[28],0.767
same,glycan array binding signal (z-score),[29],-0.326
same,glycan array binding signal (z-score),[30],0.075
same,glycan array binding signal (z-score),[31],0.014
same,glycan array binding signal (z-score),Neu5Ac(a2-3)GalNAc,-0.216
same,glycan array binding signal (z-score),[32],-0.428
same,glycan array binding signal (z-score),[33],0.036
same,glycan array binding signal (z-score),[34],-0.119
same,glycan array binding signal (z-score),[35],0.029
same,glycan array binding signal (z-score),[36],0.537
same,glycan array binding signal (z-score),Neu5Ac(a2-6)Gal,-0.387
same,glycan array binding signal (z-score),[37],-0.314
same,glycan array binding signal (z-score),Neu5Ac(a2-6)Gal(b1-4)Glc,-0.183
same,glycan array binding signal (z-score),[38],-0.313
same,glycan array binding signal (z-score),[39],-0.472
same,glycan array binding signal (z-score),[40],0.209
same,glycan array binding signal (z-score),[41],-0.597
same,glycan array binding signal (z-score),[42],-0.298
